Assay results taken from the supplement of paper PMC11417369.
± gives the standard deviation of the averaged measurements. This is one part of the list.

test system: PfAP2-G AP2 domain (GST-tagged); assay: gcPBM binding intensity (ln(normalized median fluorescence intensity)); higher = stronger DNA binding
In short: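 For binding intensity, the highest Masliner-normalised natural-log median intensity across replicate spots of either probe orientation was taken. Protein bound to the array was stained with Alexa488 anti-GST antibody and scanned at 488 nm. The protein, GST-tagged P. falciparum DNA-binding domains from E. coli at about 25 μg on average, had been applied for 1 h to an Agilent 4 × 180k array of primer-extended double-stranded 36-bp intergenic genomic probes and negative controls.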

Sequence | gcPBM binding intensity (ln)
ATATATATATATATATCACACATTAATAATATATAT [CACACA_site5081] | 9.96 ± 0.35
ATAATTACATTCCATACACACATATATTTAAAGGTT [CACACA_site7403] | 10 ± 0.042
TTCTTGTTCCTGAAAGTGCATATAACAAAAATAACA [GTGCAC_site9635] | 10.4 ± 0.42
TTATATTTGATAGTTTGTACATATAATTATTATCAT [XGTACX_site5676] | 11 ± 0.57
TATCTTCAAGTATGTACACACTATATATAATAAAAT [CACACA_site5368] | 11.4 ± 0.93
AATGATATATTTAAATGTACACATGAAATATAATAT [XGTACX_site2678] | 11.4 ± 0.74
TGTAATATATGTATTGCACACCTATAACCATTATTT [CACACA_site8422] | 10 ± 0.14
TATAAGTGCCGTTATACACACGTTATATAAATATTA [CACACA_site4401] | 9.93 ± 0.057
ATAATTATATTTAGTGGTACTACTTTTGATAATTAG [XGTACX_site6562] | 11.5 ± 0.78
AATTAAAAGTGAAGAGTGCATAGAATTTTTTACTTT [GTGCAC_site9973] | 9.955 ± 0.007
TTTAATTTTCAATGGCGTACATATAAAATATTATAT [XGTACX_site1672] | 11.5 ± 1
AAATGTGAAAAAGAGTGTACCCGACTTGAAATTAAG [XGTACX_site8621] | 11.5 ± 1
AGTAGAATATCCCCTACACACCCAAGTAATTTACAA [CACACA_site6708] | 10.1 ± 0.12
ACATATAGATAAATATGTACATATATATATATATAT [XGTACX_site1806] | 11.1 ± 0.64
GATGAATAATATGTATGTACATATGCATTATGATGT [XGTACX_site7655] | 11 ± 0.56
ATATGCACTTTTTGCACACGTATGAATAACAAAATA [CACACA_site1810] | 10.6 ± 0.43
TTTTGGATGAACAGTACATGCAAAAACAAACTTGTA [TGCATGCA_site16] | 10.8 ± 0.37
TGCTTCTTTTAAAAACATGTTTGTATTCATTTTATA [CACACA_negctrl_site1627] | 10.04 ± 0.092
ACAAAAAGTTACATACGTACGTAAAATTGTAATAAA [XGTACX_site2358] | 11.3 ± 0.67
ATAATACCATTAATTTGTACATATATATTATATATA [XGTACX_site4345] | 10.9 ± 0.49
ATTATATTATATATATGTACATATATATATCATAAT [XGTACX_site1] | 11.1 ± 0.66
TAATTATACTTATTTTGTACGCAATATTTAAAATAA [XGTACX_site8516] | 11.4 ± 0.93
TCTTCTTTAAAAGAGGTGCACTATATAATGTGATTA [GTGCAC_site9431] | 10.4 ± 0.38

Sequence | gcPBM binding intensity (ln)
TTTTTAACGTATAAGGTGCACTGTATATGGTACTCA | 10.9 ± 0.69
ATTTCTCTATCGTAATGTACAAAAAAAAGGAAAAAA [XGTACX_site1323] | 10.9 ± 0.71
ACATATAAATGATATGTACACACATTTATATATATA [CACACA_site9152] | 11.4 ± 0.72
TACACAAAAATTTATACACACACATATATAATATAT [CACACA_site7931] | 10.1 ± 0.12
TGATTATATATAAATGTATGCATGTCTATTATGCTA [TGCATGCA_site543] | 9.73 ± 0.12
TCTTTTATATTTTTTTGTACACAAGAATAAAGAAAA [XGTACX_site3394] | 11.4 ± 0.98
GACAAATGAAAAGATTGTACATGTATTTGAAGATTA [XGTACX_site6775] | 11 ± 0.58
TATATATATATATAGGTGCAATATTGAAAAAATATC [GTGCAC_site9535] | 10.2 ± 0.31
AAAGTAATATATAATACATGCGTAAATATTTATGTA [TGCATGCA_site254] | 9.86
TATATATATATATATTGTACACATACATGTAGTTTT [XGTACX_site4848] | 11.5 ± 0.82
GAGTTTTAATGTAATAGTACTTTAATTATTATATAT [XGTACX_site4527] | 10.9 ± 0.61
TTTTTTTTTTATTCATGTACGTATTTAAATAATTCT [XGTACX_site2651] | 11.4 ± 0.76
ATCTTTTATATATTCACACATAAAATTATACAGATA [CACACA_site5277] | 10.1 ± 0.2
AATAAATAAATAAATATATATATATATATATATATA [CACACA_negctrl_site708] | 10.2 ± 0.91
ATATATATATATAATGCACACATTATAAATTATGTA [CACACA_site5802] | 9.97 ± 0.62
TGTATATACATAAAGTGTACGTATATTTATATATAT [XGTACX_site4320] | 11.6 ± 0.98
TATTTTTATTTTACATTATTTGTTTATAATTCTTAA [CACACA_negctrl_site1358] | 9.845 ± 0.007
AAAAAAAAAAAAAACACACAAACAAATGAATAAATA [CACACA_site3300] | 9.91 ± 0.16
ATAAAAAATTAGGACTGTACATAATTTTTGTGATTT [XGTACX_site2857] | 11.2 ± 0.7
TTTATTTTAAATTTACGTACATAATTAATCATATTT [XGTACX_site7529] | 11.5 ± 0.97
ATGAAATTTATATCATGTACATACAAGAGAAAAAAA [XGTACX_site3326] | 11.1 ± 0.68
AAAATTATAAAATGGGCACACATGAATATTGTAGTA [CACACA_site5261] | 10.5 ± 0.29
GTATAATAAATGATAGCACACATATGTACTTATATA [CACACA_site8188] | 11.5 ± 0.85

Sequence | gcPBM binding intensity (ln)
GACTACACACAAGGGTGTACATATATATTATATATA [XGTACX_site2247] | 11.3 ± 0.85
TTAACTTATTTGTAAAGTACATTAATAAAAAGAAAA [XGTACX_site1588] | 11.1 ± 0.42
AGGTTATAATTGTTTTCACACATTTAAAAATGTTAT [CACACA_site5097] | 9.98 ± 0.042
TTATATATTTCTATTGCACACTATATTTTATGAAGA [CACACA_site2910] | 10.1 ± 0.15
TATATATATAAGGATAGTACATATATTTATATGATT [XGTACX_site4954] | 10.8 ± 0.52
AAAATAATCTTATGCACACCAAAAATTTATATAATC [CACACA_site1235] | 10.1 ± 0.12
TTATAAAAATACAGTTAACACACATGTGTATATATA [CACACA_site9257] | 10.4 ± 0.25
GATCGCATGAAATGAACACACATAAAAAAAATATAC [CACACA_site4087] | 10.1 ± 0.17
AAAAAAAAAATATACACACACACATACCCATAAATA [CACACA_site5981] | 10.4 ± 0.23
AAAACACAATTTATTACACACATATATTATAGATTA [CACACA_site6780] | 9.815 ± 0.064
TAATGCAACATTTATGTGCACATAAATATTTTTTAA | 10.6 ± 0.45
CTTTGTAGTTGGTCCACACACATATCTGGAAGAATA [CACACA_site4834] | 11.3 ± 1.1
ATATTAAATATATACAGTACACATTACAATACAATA [XGTACX_site3221] | 11.2 ± 0.59
TAATATTAAAAAGAGACACACAAAAATATTAAAAAA [CACACA_site3120] | 10.1 ± 0.11
TTACACCTTAGGATCTGTACAAATATATGACAAATC [XGTACX_site4333] | 10.7 ± 0.42
AAGGTTTTGGGTTTTAATTAATTTAATATGATTATA [XGTACX_negctrl_site147] | 10 ± 0.18
TAAGCGTTTTTTAAAACACACATAAGAACTAAATGA [CACACA_site1670] | 10.2 ± 0.18
TTTCTTAAACCGTACAGTACACACCTTTATAATGTT [XGTACX_site434] | 11.3 ± 0.74
TTTTTTTTTTTTTGTAGTACATACTATTTTATTAAT [XGTACX_site950] | 11.5 ± 1
CGACTTTTAAAATATACACACATATAAATAAATATA [CACACA_site6523] | 9.94 ± 0.085
TTACAATATAATAAATGTACATATAACAAATATATA [XGTACX_site2199] | 11.2 ± 0.65
TAAAAAATTATATTCACACACATACACATATATATA [CACACA_site545] | 9.91 ± 0.14
AGAATTATATACACAAGTACATAATGACATATATAT [XGTACX_site5617] | 11.1 ± 0.89

Sequence | gcPBM binding intensity (ln)
TAGATGTATTTTTAAAGTACTTTTTAATATATAATC [XGTACX_site1431] | 11.2 ± 0.8
CATCTGGTATCTAATAGTACATATATATAATATCTT [XGTACX_site2774] | 11.1 ± 0.52
AACAAAAGAAAAAAATATATATATTCGTCCTATTTT [CACACA_negctrl_site444] | 9.85 ± 0.099
ATTTTTTTTTTTTATGGTACACACACGCGTATGGTT [XGTACX_site3888] | 11.5 ± 1.1
TATATATGCATTAAAGTGTTTTTTTTTTTTTTTTTT [CACACA_negctrl_site1353] | 10.4 ± 0.25
TTAAAAAATATATACGTTGATATAATACAACTTGAC [CACACA_negctrl_site1551] | 10.1 ± 0.14
ATGTGTATATGTTAATGTACAAATTTTGAAAATGCC [XGTACX_site2685] | 10.9 ± 0.52
TGTATAACCATAAATTGTACAGAAAAAAGTATAAAA [XGTACX_site1493] | 10.9 ± 0.47
ATTTATTTATCAAATATTATCTTAAAAAAAAAAGAA [CACACA_negctrl_site1345] | 9.625 ± 0.078
TTTCAACTTTTGTCATGTACACATAATTTTATTGCA [XGTACX_site6701] | 11.3 ± 0.8
TACCAAAAAAAAAAAAATAAAAATAAAAAAAAAAAT [CACACA_negctrl_site1714] | 9.47 ± 0.028
AAAATAAAAATAAAAGCACACATAAATATATATATA [CACACA_site8409] | 9.87 ± 0.23
TAAAAGTTTTTATACATACACACCTATAAATTAAGT [CACACA_site2446] | 10.14 ± 0.035
CTTTATTATAAGATTACACACATGTCTTATAATTTA [CACACA_site5715] | 9.85 ± 0.057
TAACTATTATAAAAATGTACAAATGAAAATATTTTT [XGTACX_site1438] | 10.8 ± 0.38
TAATTAAATACATTAACACACACACTAATATATACA [CACACA_site8938] | 10.1 ± 0.16
TTCCTGTTAATTACAACACACAATTTTTATTTTATG [CACACA_site779] | 10.15 ± 0.014
AATTTTTTTTTTTTGTGTCCTCATAATTCTTCATTC [XGTACX_site5042] | 11.4 ± 0.82
TAAAAAAAAATATAATGTACGTATAAATATATATTA [XGTACX_site5085] | 11.3 ± 0.75
TAAACATAATAATATACACACATATATTGATATATA [CACACA_site2144] | 9.675 ± 0.035
